The other results are listed elsewhere or left out.
How the values were obtained:
Assay in all cases: glycan array binding signal (z-score within array); higher = stronger binding
Settings in all cases: glycan notation: IUPAC condensed, linker removed
Fuc(a1-2)Gal = biological target: Fuc(a1-2)Gal
Method in brief: (§1)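 Columns mapping to the same glycan were averaged after glycan names were converted to IUPAC-condensed notation. The data come from 3228 arrays in the Consortium for Functional Glycomics database, limited to those with an available protein sequence. Binding is reported as a within-array Z-score averaged across arrays of one protein sequence and across linkers.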

Fuc(a1-2)Gal(b1-3)GalNAc = biological target: Fuc(a1-2)Gal(b1-3)GalNAc
Method in brief: as §1

[1] = biological target: Fuc(a1-2)Gal(b1-3)GalNAc(a1-3)[Fuc(a1-2)]Gal(b1-4)Glc
Method in brief: as §1

[2] = biological target: Fuc(a1-2)Gal(b1-3)GalNAc(a1-3)[Fuc(a1-2)]Gal(b1-4)GlcNAc
Method in brief: as §1

[3] = biological target: Fuc(a1-2)Gal(b1-3)GalNAc(b1-3)Gal
Method in brief: as §1

[4] = biological target: Fuc(a1-2)Gal(b1-3)GalNAc(b1-3)Gal(a1-4)Gal(b1-4)Glc
Method in brief: as §1

[5] = biological target: Fuc(a1-2)Gal(b1-3)GalNAc(b1-4)[Neu5Ac(a2-3)]Gal(b1-4)Glc
Method in brief: as §1

Fuc(a1-2)Gal(b1-3)GlcNAc = biological target: Fuc(a1-2)Gal(b1-3)GlcNAc
Method in brief: as §1

[6] = biological target: Fuc(a1-2)Gal(b1-3)GlcNAc(b1-2)Man(a1-3)[Fuc(a1-2)Gal(b1-3)GlcNAc(b1-2)Man(a1-6)]Man(b1-4)GlcNAc(b1-4)GlcNAc
Method in brief: as §1

[7] = biological target: Fuc(a1-2)Gal(b1-3)GlcNAc(b1-2)Man(a1-3)[Fuc(a1-2)Gal(b1-3)GlcNAc(b1-2)Man(a1-6)]Man(b1-4)GlcNAc(b1-4)[Fuc(a1-6)]GlcNAc
Method in brief: as §1

[8] = biological target: Fuc(a1-2)Gal(b1-3)GlcNAc(b1-3)Gal(b1-4)Glc
Method in brief: as §1

[9] = biological target: Fuc(a1-2)Gal(b1-3)GlcNAc(b1-3)GalNAc
Method in brief: as §1

[10] = biological target: Fuc(a1-2)Gal(b1-3)GlcNAc(b1-3)[Fuc(a1-2)Gal(b1-3)GlcNAc(b1-6)]GalNAc
Method in brief: as §1

[11] = biological target: Fuc(a1-2)Gal(b1-3)GlcNAc(b1-3)[Fuc(a1-3)[Gal(b1-4)]GlcNAc(b1-6)]Gal(b1-4)Glc
Method in brief: as §1

[12] = biological target: Fuc(a1-2)Gal(b1-3)GlcNAc(b1-3)[Gal(b1-4)GlcNAc(b1-6)]Gal(b1-4)Glc
Method in brief: as §1

[13] = biological target: Fuc(a1-2)Gal(b1-3)GlcNAc(b1-3)[Neu5Ac(a2-6)Gal(b1-4)GlcNAc(b1-6)]Gal(b1-4)Glc
Method in brief: as §1

[14] = biological target: Fuc(a1-2)Gal(b1-3)GlcNAc6S
Method in brief: as §1

[15] = biological target: Fuc(a1-2)Gal(b1-3)[Fuc(a1-4)]GlcNAc
Method in brief: as §1

[16] = biological target: Fuc(a1-2)Gal(b1-3)[Fuc(a1-4)]GlcNAc(b1-2)Man(a1-3)[Fuc(a1-2)Gal(b1-3)[Fuc(a1-4)]GlcNAc(b1-2)Man(a1-6)]Man(b1-4)GlcNAc(b1-4)GlcNAc
Method in brief: as §1

[17] = biological target: Fuc(a1-2)Gal(b1-3)[Fuc(a1-4)]GlcNAc(b1-2)Man(a1-6)[Fuc(a1-2)Gal(b1-3)[Fuc(a1-4)]GlcNAc(b1-2)Man(a1-3)]Man(b1-4)GlcNAc(b1-4)[Fuc(a1-6)]GlcNAc
Method in brief: as §1

[18] = biological target: Fuc(a1-2)Gal(b1-3)[Fuc(a1-4)]GlcNAc(b1-3)[Fuc(a1-3)[Gal(b1-4)]GlcNAc(b1-6)]Gal(b1-4)Glc
Method in brief: as §1

[19] = biological target: Fuc(a1-2)Gal(b1-3)[Fuc(a1-4)]GlcNAc(b1-3)[Gal(b1-4)GlcNAc(b1-6)]Gal(b1-4)Glc
Method in brief: as §1

Fuc(a1-2)Gal(b1-4)Glc = biological target: Fuc(a1-2)Gal(b1-4)Glc
Method in brief: as §1

Fuc(a1-2)Gal(b1-4)Glc6S = biological target: Fuc(a1-2)Gal(b1-4)Glc6S
Method in brief: as §1

Fuc(a1-2)Gal(b1-4)GlcNAc = biological target: Fuc(a1-2)Gal(b1-4)GlcNAc
Method in brief: as §1

[20] = biological target: Fuc(a1-2)Gal(b1-4)GlcNAc(b1-2)Man
Method in brief: as §1

[21] = biological target: Fuc(a1-2)Gal(b1-4)GlcNAc(b1-2)Man(a1-3)[Fuc(a1-2)Gal(b1-4)GlcNAc(b1-2)Man(a1-6)]Man(b1-4)GlcNAc(b1-4)GlcNAc
Method in brief: as §1

[22] = biological target: Fuc(a1-2)Gal(b1-4)GlcNAc(b1-2)Man(a1-3)[Fuc(a1-2)Gal(b1-4)GlcNAc(b1-2)Man(a1-6)]Man(b1-4)GlcNAc(b1-4)[Fuc(a1-6)]GlcNAc
Method in brief: as §1

[23] = biological target: Fuc(a1-2)Gal(b1-4)GlcNAc(b1-2)[Fuc(a1-2)Gal(b1-4)GlcNAc(b1-4)]Man(a1-3)[Fuc(a1-2)Gal(b1-4)GlcNAc(b1-2)Man(a1-6)]Man(b1-4)GlcNAc(b1-4)GlcNAc
Method in brief: as §1

[24] = biological target: Fuc(a1-2)Gal(b1-4)GlcNAc(b1-3)Gal(b1-4)GlcNAc
Method in brief: as §1

[25] = biological target: Fuc(a1-2)Gal(b1-4)GlcNAc(b1-3)Gal(b1-4)GlcNAc(b1-3)Gal(b1-4)GlcNAc
Method in brief: as §1

[26] = biological target: Fuc(a1-2)Gal(b1-4)GlcNAc(b1-3)GalNAc
Method in brief: as §1

[27] = biological target: Fuc(a1-2)Gal(b1-4)GlcNAc(b1-3)[Fuc(a1-2)Gal(b1-4)GlcNAc(b1-6)]GalNAc
Method in brief: as §1

[28] = biological target: Fuc(a1-2)Gal(b1-4)GlcNAc(b1-6)GalNAc
Method in brief: as §1

[29] = biological target: Fuc(a1-2)Gal(b1-4)GlcNAc6S
Method in brief: as §1

[30] = biological target: Fuc(a1-2)Gal(b1-4)[Fuc(a1-3)]GlcNAc
Method in brief: as §1

[31] = biological target: Fuc(a1-2)Gal(b1-4)[Fuc(a1-3)]GlcNAc(b1-2)Man(a1-3)[Fuc(a1-2)Gal(b1-4)[Fuc(a1-3)]GlcNAc(b1-2)Man(a1-6)]Man(b1-4)GlcNAc(b1-4)GlcNAc
Method in brief: as §1

B1: Gal 4 (Homo sapiens), Q8K419 (protein)
chain: MAYVPAPGYQPTYNPTLPYKRPIPGGLSVGMSVYIQGMAKENMRRFHVNFAVGQDDGADVAFHFNPRFDGWDKVVFNTMQSGQWGKEEKKKSMPFQKGKHFELVFMVMPEHYKVVVNGNSFYEYGHRLPVQMVTHLQVDGDLELQSINFLGGQPAAAPYPGAMTIPAYPAGSPGYNPPQMNTLPVMTGPPVFNPRVPYVGALQGGLTVRRTIIIKGYVLPTARNFVINFKVGSSGDIALHLNPRIGDSVVRNSFMNGSWGAEERKVAYNPFGPGQFFDLSIRCGMDRFKVFANGQHLFDFSHRFQAFQMVDTLEINGDITLSYVQI
glycan array binding signal (z-score) (Fuc(a1-2)Gal): -0.2 | glycan array binding signal (z-score) (Fuc(a1-2)Gal(b1-3)GalNAc): -0.181 | glycan array binding signal (z-score) [1]: 0.743 | glycan array binding signal (z-score) [2]: 0.009 | glycan array binding signal (z-score) [3]: -0.205 | glycan array binding signal (z-score) [4]: -0.201 | glycan array binding signal (z-score) [5]: -0.203 | glycan array binding signal (z-score) (Fuc(a1-2)Gal(b1-3)GlcNAc): 0.279 | glycan array binding signal (z-score) [6]: 0.028 | glycan array binding signal (z-score) [7]: -0.154 | glycan array binding signal (z-score) [8]: 1.28 | glycan array binding signal (z-score) [9]: -0.021 | glycan array binding signal (z-score) [10]: -0.088 | glycan array binding signal (z-score) [11]: -0.103 | glycan array binding signal (z-score) [12]: 0.061 | glycan array binding signal (z-score) [13]: -0.035 | glycan array binding signal (z-score) [14]: 1.3 | glycan array binding signal (z-score) [15]: -0.201 | glycan array binding signal (z-score) [16]: -0.173 | glycan array binding signal (z-score) [17]: -0.201 | glycan array binding signal (z-score) [18]: -0.197 | glycan array binding signal (z-score) [19]: -0.182 | glycan array binding signal (z-score) (Fuc(a1-2)Gal(b1-4)Glc): 0.174 | glycan array binding signal (z-score) (Fuc(a1-2)Gal(b1-4)Glc6S): 0.599 | glycan array binding signal (z-score) (Fuc(a1-2)Gal(b1-4)GlcNAc): -0.168 | glycan array binding signal (z-score) [20]: -0.211 | glycan array binding signal (z-score) [21]: -0.143 | glycan array binding signal (z-score) [22]: -0.202 | glycan array binding signal (z-score) [23]: -0.243 | glycan array binding signal (z-score) [24]: -0.032 | glycan array binding signal (z-score) [25]: -0.084 | glycan array binding signal (z-score) [26]: -0.199 | glycan array binding signal (z-score) [27]: -0.189 | glycan array binding signal (z-score) [28]: -0.185 | glycan array binding signal (z-score) [29]: -0.086 | glycan array binding signal (z-score) [30]: -0.201 | glycan array binding signal (z-score) [31]: -0.14
